The results in this text go back to patent US20230002489A1 (SHANGHAI EPIMAB BIOTHERAPEUTICS, published 2023).

This assay deals with T1, human CD3 on the surface of Jurkat cells (human, UniProt P07766; P09693; P04234).
T1 construct: whole, on cells; Endogenous CD3 complex of the Jurkat T cell line; also called cell surface CD3 target on Jurkat cells; CD3-expressing Jurkat cells
As to the kind of experiment: flow cytometry on Jurkat cells, MFI against antibody conc. (nM). The method, then: Different humanized VH and VK combinations led to humanized anti-CD3 variants with different CD3 binding affinities. The binding activity of the humanized variants of mAbCD3-001 were tested via flow cytometry with the human CD3-expressing Jurkat T cell line. 5×10⁵ Jurkat cells in FACS buffer were seeded into each well of a 96-well plate. Cells were centrifuged at 400 g for 5 minutes and supernatants were discarded. For each well, 100 μl of serially diluted antibodies were then added and mixed with the cells. After 40 minutes incubation at 4° C., plates were washed several times to remove excess antibodies. […] After another round of centrifugation and a washing step, cells were resuspended in FACS buffer for reading on a CytoFLEX Flow Cytometer (Beckman Coulter). Median Fluorescence Intensity (MFI) readouts were plotted against antibody concentration and analyzed with GraphPad Prism 5.0 software.

T1 sequence (P07766 23-207, chain 1 of 3): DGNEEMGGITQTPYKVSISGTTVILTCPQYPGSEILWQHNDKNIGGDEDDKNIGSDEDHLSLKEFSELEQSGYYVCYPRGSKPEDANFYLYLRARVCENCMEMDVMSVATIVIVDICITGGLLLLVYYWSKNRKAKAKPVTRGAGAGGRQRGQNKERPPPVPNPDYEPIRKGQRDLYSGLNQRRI
T1 sequence (P09693 23-182, chain 2 of 3, further chain): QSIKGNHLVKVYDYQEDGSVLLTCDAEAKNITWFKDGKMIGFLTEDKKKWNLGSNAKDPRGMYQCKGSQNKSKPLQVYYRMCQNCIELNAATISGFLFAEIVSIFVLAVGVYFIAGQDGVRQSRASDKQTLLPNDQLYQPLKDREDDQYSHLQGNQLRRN
T1 sequence (P04234 22-171, chain 3 of 3, further chain): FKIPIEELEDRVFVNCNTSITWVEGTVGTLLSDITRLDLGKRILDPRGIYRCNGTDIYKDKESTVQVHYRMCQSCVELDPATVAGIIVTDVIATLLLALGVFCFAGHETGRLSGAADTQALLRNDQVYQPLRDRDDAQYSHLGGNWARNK

B1: HuEM0006-01-7 (antibody, human IgG1, kappa)
heavy: EVQLVQSGAEVKKPGASVKVSCKASGFSFTNYYVHWMRQAPGQGLEWIGWISPGSDNTKYNEKFKGRVTLTADTSISTAYMELSRLRSDDTAVYYCARDDYGNYYFDYWGQGTTVTVSSASTKGPSVFPLAPSSKSTSGGTAALGCLVKDYFPEPVTVSWNSGALTSGVHTFPAVLQSSGLYSLSSVVTVPSSSLGTQTYICNVNHKPSNTKVDKKV[letters of human IgG1 Fc with changes omitted]
light: DIVMTQSPDSLAVSLGERATINCKSSQSLLNSRTRKNYLAWYQQKPGQPPKLLIYWASTRESGVPDRFSGSGSGTDFTLTISSLQAEDVAVYYCKQSYILRTFGGGTKVEIKRTVAAPSVFIFPPSDEQLKSGTASVVCLLNNFYPREAKVQWKVDNALQSGNSQESVTEQDSKDSTYSLSSTLTLSKADYEKHKVYACEVTHQGLSSPVTKSFNRGEC
notes: Humanized variant of mAbCD3-001
For the molecule B1, the binding result is “binds”.

B2: HuEM0006-01-8 (antibody, human IgG1, kappa)
heavy: EVQLVQSGAEVKKPGASVKVSCKASGFSFTNYYVHWMRQAPGQGLEWMGWISPGSDNTKYNEKFKGRVTMTRDTSISTAYMELSRLRSDDTAVYYCARDDYGNYYFDYWGQGTTVTVSSASTKGPSVFPLAPSSKSTSGGTAALGCLVKDYFPEPVTVSWNSGALTSGVHTFPAVLQSSGLYSLSSVVTVPSSSLGTQTYICNVNHKPSNTKVDKKV[letters of human IgG1 Fc with changes omitted]
light: DIVMTQSPDSLAVSLGERATINCKSSQSLLNSRTRKNYLAWYQQKPGQPPKLLIYWASTRESGVPDRFSGSGSGTDFTLTISSLQAEDVAVYYCKQSYILRTFGGGTKVEIKRTVAAPSVFIFPPSDEQLKSGTASVVCLLNNFYPREAKVQWKVDNALQSGNSQESVTEQDSKDSTYSLSSTLTLSKADYEKHKVYACEVTHQGLSSPVTKSFNRGEC
notes: Humanized variant of mAbCD3-001; also called HuEM0006-01-08
Take B2: the binding result is given as “binds”.

B3: HuEM0006-01-6 (antibody, human IgG1, kappa)
heavy: EVQLVQSGAEVKKPGASVKVSCKASGFSFTNYYVHWMRQAPGQGLEWIGWISPGSDNTKYNEKFKGKATLTADTSISTAYMELSRLRSDDTAVYYCARDDYGNYYFDYWGQGTTVTVSSASTKGPSVFPLAPSSKSTSGGTAALGCLVKDYFPEPVTVSWNSGALTSGVHTFPAVLQSSGLYSLSSVVTVPSSSLGTQTYICNVNHKPSNTKVDKKV[letters of human IgG1 Fc with changes omitted]
light: DIVMTQSPDSLAVSLGERATINCKSSQSLLNSRTRKNYLAWYQQKPGQPPKLLIYWASTRESGVPDRFSGSGSGTDFTLTISSLQAEDVAVYYCKQSYILRTFGGGTKVEIKRTVAAPSVFIFPPSDEQLKSGTASVVCLLNNFYPREAKVQWKVDNALQSGNSQESVTEQDSKDSTYSLSSTLTLSKADYEKHKVYACEVTHQGLSSPVTKSFNRGEC
notes: as for B1
Consider B3, for which the binding result is “binds”.

B4: HuEM0006-01-5 (antibody, human IgG1, kappa)
heavy: EVQLVQSGAEVKKPGASVKVSCKASGYTFTNYYVHWMRQAPGQGLEWIGWISPGSDNTKYNEKFKGRVTLTADTSISTAYMELSRLRSDDTAVYYCARDDYGNYYFDYWGQGTTVTVSSASTKGPSVFPLAPSSKSTSGGTAALGCLVKDYFPEPVTVSWNSGALTSGVHTFPAVLQSSGLYSLSSVVTVPSSSLGTQTYICNVNHKPSNTKVDKKV[letters of human IgG1 Fc with changes omitted]
light: DIVMTQSPDSLAVSLGERATINCKSSQSLLNSRTRKNYLAWYQQKPGQPPKLLIYWASTRESGVPDRFSGSGSGTDFTLTISSLQAEDVAVYYCKQSYILRTFGGGTKVEIKRTVAAPSVFIFPPSDEQLKSGTASVVCLLNNFYPREAKVQWKVDNALQSGNSQESVTEQDSKDSTYSLSSTLTLSKADYEKHKVYACEVTHQGLSSPVTKSFNRGEC
notes: as for B1
For the molecule B4, the binding result is reported as “binds”.

B5: HuEM0006-01-10 (antibody, human IgG1, kappa)
heavy: EVQLVQSGAEVKKPGASVKVSCKASGYTFTNYYVHWVRQAPGQGLEWMGWISPGSDNTKYNEKFKGRVTLTADTSISTAYMELSRLRSDDTAVYYCARDDYGNYYFDYWGQGTTVTVSSASTKGPSVFPLAPSSKSTSGGTAALGCLVKDYFPEPVTVSWNSGALTSGVHTFPAVLQSSGLYSLSSVVTVPSSSLGTQTYICNVNHKPSNTKVDKKV[letters of human IgG1 Fc with changes omitted]
light: DIVMSQSPDSLAVSLGERATITCKSSQSLLNSRTRKNYLAWYQQKPGQPPKLLIYWASTRESGVPDRFSGSGSGTDFTLTISSLQAEDVAVYYCKQSYILRTFGGGTKVEIKRTVAAPSVFIFPPSDEQLKSGTASVVCLLNNFYPREAKVQWKVDNALQSGNSQESVTEQDSKDSTYSLSSTLTLSKADYEKHKVYACEVTHQGLSSPVTKSFNRGEC
notes: as for B1
Take B5: the binding result was “binds”.

B6: HuEM0006-01-3 (antibody, human IgG1, kappa)
heavy: EVQLVQSGAEVKKPGASVKVSCKASGYTFTNYYVHWVRQAPGQGLEWIGWISPGSDNTKYNEKFKGKATLTADTSISTAYMELSRLRSDDTAVYYCARDDYGNYYFDYWGQGTTVTVSSASTKGPSVFPLAPSSKSTSGGTAALGCLVKDYFPEPVTVSWNSGALTSGVHTFPAVLQSSGLYSLSSVVTVPSSSLGTQTYICNVNHKPSNTKVDKKV[letters of human IgG1 Fc with changes omitted]
light: DIVMTQSPDSLAVSLGERATINCKSSQSLLNSRTRKNYLAWYQQKPGQPPKLLIYWASTRESGVPDRFSGSGSGTDFTLTISSLQAEDVAVYYCKQSYILRTFGGGTKVEIKRTVAAPSVFIFPPSDEQLKSGTASVVCLLNNFYPREAKVQWKVDNALQSGNSQESVTEQDSKDSTYSLSSTLTLSKADYEKHKVYACEVTHQGLSSPVTKSFNRGEC
notes: as for B1
B6: the binding result was “binds”.

B7: HuEM0006-01-1 (antibody, human IgG1, kappa)
heavy: EVQLVQSGAEVKKPGASVKVSCKASGYTFTNYYVHWVRQAPGQGLEWMGWISPGSDNTKYNEKFKGRVTLTADTSISTAYMELSRLRSDDTAVYYCARDDYGNYYFDYWGQGTTVTVSSASTKGPSVFPLAPSSKSTSGGTAALGCLVKDYFPEPVTVSWNSGALTSGVHTFPAVLQSSGLYSLSSVVTVPSSSLGTQTYICNVNHKPSNTKVDKKV[letters of human IgG1 Fc with changes omitted]
light: DIVMTQSPDSLAVSLGERATINCKSSQSLLNSRTRKNYLAWYQQKPGQPPKLLIYWASTRESGVPDRFSGSGSGTDFTLTISSLQAEDVAVYYCKQSYILRTFGGGTKVEIKRTVAAPSVFIFPPSDEQLKSGTASVVCLLNNFYPREAKVQWKVDNALQSGNSQESVTEQDSKDSTYSLSSTLTLSKADYEKHKVYACEVTHQGLSSPVTKSFNRGEC
notes: as for B1
Regarding B7, the binding result is reported as “binds”.

B8: HuEM0006-01-9 (antibody, human IgG1, kappa)
heavy: EVQLVQSGAEVKKPGASVKVSCKASGFSFTNYYVHWMKQAPGQGLEWIGWISPGSDNTKYNEKFKGKATLTADTSITTAYMELSRLRSDDTAVYYCARDDYGNYYFDYWGQGTTVTVSSASTKGPSVFPLAPSSKSTSGGTAALGCLVKDYFPEPVTVSWNSGALTSGVHTFPAVLQSSGLYSLSSVVTVPSSSLGTQTYICNVNHKPSNTKVDKKV[letters of human IgG1 Fc with changes omitted]
light: DIVMTQSPDSLAVSLGERATINCKSSQSLLNSRTRKNYLAWYQQKPGQPPKLLIYWASTRESGVPDRFSGSGSGTDFTLTISSLQAEDVAVYYCKQSYILRTFGGGTKVEIKRTVAAPSVFIFPPSDEQLKSGTASVVCLLNNFYPREAKVQWKVDNALQSGNSQESVTEQDSKDSTYSLSSTLTLSKADYEKHKVYACEVTHQGLSSPVTKSFNRGEC
notes: as for B1
Regarding B8, the binding result is “binds”.

B9: HuEM0006-01-2 (antibody, human IgG1, kappa)
heavy: EVQLVQSGAEVKKPGASVKVSCKASGYTFTNYYVHWVRQAPGQGLEWIGWISPGSDNTKYNEKFKGRVTLTADTSISTAYMELSRLRSDDTAVYYCARDDYGNYYFDYWGQGTTVTVSSASTKGPSVFPLAPSSKSTSGGTAALGCLVKDYFPEPVTVSWNSGALTSGVHTFPAVLQSSGLYSLSSVVTVPSSSLGTQTYICNVNHKPSNTKVDKKV[letters of human IgG1 Fc with changes omitted]
light: DIVMTQSPDSLAVSLGERATINCKSSQSLLNSRTRKNYLAWYQQKPGQPPKLLIYWASTRESGVPDRFSGSGSGTDFTLTISSLQAEDVAVYYCKQSYILRTFGGGTKVEIKRTVAAPSVFIFPPSDEQLKSGTASVVCLLNNFYPREAKVQWKVDNALQSGNSQESVTEQDSKDSTYSLSSTLTLSKADYEKHKVYACEVTHQGLSSPVTKSFNRGEC
notes: as for B1
As to B9, the binding result was “binds”.

B10: HuEM0006-01-4 (antibody, human IgG1, kappa)
heavy: EVQLVQSGAEVKKPGASVKVSCKASGYTFTNYYVHWMRQAPGQGLEWIGWISPGSDNTKYNEKFKGKATLTADTSISTAYMELSRLRSDDTAVYYCARDDYGNYYFDYWGQGTTVTVSSASTKGPSVFPLAPSSKSTSGGTAALGCLVKDYFPEPVTVSWNSGALTSGVHTFPAVLQSSGLYSLSSVVTVPSSSLGTQTYICNVNHKPSNTKVDKKV[letters of human IgG1 Fc with changes omitted]
light: DIVMTQSPDSLAVSLGERATINCKSSQSLLNSRTRKNYLAWYQQKPGQPPKLLIYWASTRESGVPDRFSGSGSGTDFTLTISSLQAEDVAVYYCKQSYILRTFGGGTKVEIKRTVAAPSVFIFPPSDEQLKSGTASVVCLLNNFYPREAKVQWKVDNALQSGNSQESVTEQDSKDSTYSLSSTLTLSKADYEKHKVYACEVTHQGLSSPVTKSFNRGEC
notes: as for B1
On to B10, for which the binding result is reported as “binds”.

B11: HuEM0006-01-11 (antibody, human IgG1, kappa)
heavy: EVQLVQSGAEVKKPGASVKVSCKASGYTFTNYYVHWVRQAPGQGLEWIGWISPGSDNTKYNEKFKGRVTLTADTSISTAYMELSRLRSDDTAVYYCARDDYGNYYFDYWGQGTTVTVSSASTKGPSVFPLAPSSKSTSGGTAALGCLVKDYFPEPVTVSWNSGALTSGVHTFPAVLQSSGLYSLSSVVTVPSSSLGTQTYICNVNHKPSNTKVDKKV[letters of human IgG1 Fc with changes omitted]
light: DIVMSQSPDSLAVSLGERATITCKSSQSLLNSRTRKNYLAWYQQKPGQPPKLLIYWASTRESGVPDRFSGSGSGTDFTLTISSLQAEDVAVYYCKQSYILRTFGGGTKVEIKRTVAAPSVFIFPPSDEQLKSGTASVVCLLNNFYPREAKVQWKVDNALQSGNSQESVTEQDSKDSTYSLSSTLTLSKADYEKHKVYACEVTHQGLSSPVTKSFNRGEC
notes: as for B1
Take B11: the binding result is listed as “binds”.
